# Test results reported in the antibiotic and cytotoxicity screens of Wong et al. (2023).
# The other results are listed elsewhere or left out.
# Tested on: HSkMC (human skeletal muscle cells)
# Experiment: cytotoxicity call (relative viability < 0.9)
# Conditions: 10 µM
row,SMILES,cytotoxicity call
1,CN(C)CCCNC(=O)C[C@H]1CC[C@H]2[C@@H](COC[C@H](O)CN2C(=O)Nc2cc(Cl)cc(Cl)c2)O1,inactive
2,C[C@@H]1CCCCO[C@@H](CN(C)S(=O)(=O)c2ccc(Cl)cc2)[C@@H](C)CN([C@H](C)CO)C(=O)c2cc(NC(=O)Nc3cccc4ccccc34)ccc2O1,inactive
3,C[C@@H]1CCCCO[C@H](CN(C)C(=O)Nc2ccccc2)[C@H](C)CN([C@@H](C)CO)C(=O)c2cc(NS(=O)(=O)c3ccccc3)ccc2O1,inactive
4,C[C@H](CO)N1C[C@H](C)[C@H](CN(C)Cc2ccc(C(F)(F)F)cc2)Oc2ccc(NC(=O)Nc3ccc(F)cc3)cc2CC1=O,active
5,CCn1nnnc1NCc1cccn1C,inactive
6,C[C@@H]1CCCCO[C@@H](CN(C)CC2CCCCC2)[C@H](C)CN([C@H](C)CO)C(=O)c2cc(NC(=O)c3ccncc3)ccc2O1,inactive
7,CCOC(=O)C1=C(C)NC(C)=C(C(=O)OC)C1c1cccc([N+](=O)[O-])c1 (centres undefined),inactive
8,Cc1ccc(S(=O)(=O)N[C@@H](Cc2ccccc2)C(=O)NCCn2cc(C(=O)NO)nn2)cc1,inactive
9,C[C@H](O)C#Cc1ccc2c(c1)O[C@H](CN(C)C(=O)c1ccncc1)[C@H](C)CN([C@H](C)CO)S2(=O)=O,inactive
10,C[C@@H]1CN([C@@H](C)CO)C(=O)c2cccc(NS(=O)(=O)c3cccs3)c2O[C@H]1CN(C)S(=O)(=O)c1cn(C)cn1,inactive
11,Nc1ccn([C@@H]2O[C@H](CO)[C@@H](O)[C@@H]2O)c(=O)n1,inactive
12,C[C@H](CO)N1C[C@H](C)[C@H](CN(C)C(=O)C2CCCCC2)Oc2cc(-c3cncnc3)ccc2S1(=O)=O,inactive
13,C[C@@H]1CN([C@H](C)CO)C(=O)c2cccc(NS(=O)(=O)c3ccc(Cl)cc3)c2O[C@@H]1CN(C)C(=O)Nc1ccc(C(F)(F)F)cc1,active
14,C[C@@H]1CN([C@H](C)CO)C(=O)Cc2cc(NS(=O)(=O)c3cn(C)cn3)ccc2O[C@@H]1CN(C)S(=O)(=O)c1ccc(F)cc1,inactive
15,COc1cccc(CNC(=O)C[C@H]2C=C[C@H](NC(=O)C3CCOCC3)[C@@H](CO)O2)c1,inactive
16,C[C@@H]1CN([C@@H](C)CO)C(=O)c2cc(Br)cnc2O[C@H]1CN(C)S(=O)(=O)c1ccc(F)cc1,inactive
17,C[C@@H]1CN([C@H](C)CO)C(=O)c2cc(NC(=O)CCCCCC(=O)Nc3ccccc3N)ccc2O[C@@H](C)CCCCO[C@H]1CN(C)Cc1ccc(Cl)c(Cl)c1,inactive
18,C[C@@H]1CN([C@@H](C)CO)C(=O)Cc2cc(NC(=O)CCCCCC(=O)Nc3ccccc3N)ccc2O[C@H]1CN(C)S(=O)(=O)c1cn(C)cn1,inactive
19,C[C@@H]1CN([C@@H](C)CO)C(=O)c2cccc(NC(=O)CCCCCC(=O)Nc3ccccc3N)c2O[C@H]1CN(C)Cc1ccc(Oc2ccccc2)cc1,inactive
20,COc1ccc(S(=O)(=O)N(C)C[C@@H]2Oc3ccc(NS(=O)(=O)c4cccs4)cc3CC(=O)N([C@H](C)CO)C[C@@H]2C)cc1,inactive

row,SMILES,cytotoxicity call
1,CC(C)NC(=O)N(C)C[C@H]1OCCCC[C@H](C)Oc2ccc(NC(=O)C3CCCCC3)cc2C(=O)N([C@@H](C)CO)C[C@H]1C,inactive
2,O=C(C[C@H]1C=C[C@H](NC(=O)Cc2ccccn2)[C@H](CO)O1)NCCc1ccncc1,inactive
3,N#C[C@H](N)c1ccc(Cl)cc1,inactive
4,C[C@H]1CN([C@@H](C)CO)C(=O)Cc2cc(NC(=O)CCCCCC(=O)Nc3ccccc3N)ccc2O[C@H]1CN(C)Cc1ccc(C(F)(F)F)cc1,inactive
5,CN(C)CCCCCCNC(=O)[C@@H]1C[C@@H]2C(=O)N[C@@H](CCCC[N+](C)(C)C)C(=O)N2[C@@H]1c1ccc(O)cc1,inactive
6,C[C@@H]1CN([C@@H](C)CO)S(=O)(=O)c2ccc(C#CC3CCCC3)cc2O[C@@H]1CN(C)C(=O)Cc1ccncc1,inactive
7,COc1ccc(cc1)S(=O)(=O)N1C[C@]2(C1)CN([C@H](CO)c1c2c2ccc(cc2n1C)OC)C(=O)CN(C)C,inactive
8,N[C@@H](C[C@@H](F)C(=O)O)C(=O)O,inactive
9,O=C(C[C@@H]1CC[C@H]2NC[C@H](O)COC[C@@H]2O1)NCCN1CCCCC1,inactive
10,C[C@@H]1CCCCO[C@@H](CN(C)S(=O)(=O)c2ccc(F)cc2)[C@@H](C)CN([C@@H](C)CO)C(=O)c2cc(NC(=O)Cc3ccccc3)ccc2O1,inactive
11,Nc1ncccc1O,inactive
12,CCOC(=O)c1nnn(-c2nonc2N)c1CN1CCSCC1,inactive
13,C[C@@H]1CN([C@@H](C)CO)C(=O)c2cc(NC(=O)Nc3ccc(C(F)(F)F)cc3)ccc2O[C@@H]1CN(C)C(=O)Nc1ccc2c(c1)OCO2,active
14,COc1ccc(S(=O)(=O)N(C)C[C@@H]2Oc3ccc(NC(=O)Cn4cnnn4)cc3CC(=O)N([C@@H](C)CO)C[C@H]2C)cc1,inactive
15,COc1ccc(NC(=O)Nc2ccc3c(c2)C(=O)N([C@H](C)CO)C[C@@H](C)[C@@H](CN(C)Cc2ccc4c(c2)OCO4)OCCCC[C@H](C)O3)cc1,inactive
16,C[C@H](CO)N1C[C@H](C)[C@H](CN(C)Cc2cccc3c2OCCCO3)OCc2ccccc2-c2ccccc2C1=O,inactive
17,CCOc1nc2c(N)ncnc2n1CC,inactive
18,CC(=O)OC[C@@H]1O[C@H](O[C@@H]2CC[C@]34C[C@]35CC[C@]3(C)[C@@H]([C@@H](C)[C@H]6C[C@@H](O)C(C)(C)O6)CC[C@@]3(C)[C@H]5CC[C@H]4[C@H]2C)[C@@H](O)[C@H](OC(C)=O)[C@@H]1O[C@H]1O[C@@H](CO)[C@@H](O[C@H]2O[C@@H](CO)[C@@H](O)[C@@H](O)[C@@H]2O)[C@@H](O[C@H]2O[C@@H](C)[C@@H](O)[C@@H](O)[C@@H]2O)[C@@H]1O,inactive
19,C[C@@H]1CN([C@H](C)CO)C(=O)c2cc(NC(=O)Cn3cnnn3)ccc2O[C@@H]1CN(C)S(=O)(=O)c1ccccc1,inactive
